Assays:
Assay type in all cases: cell-based
[1] = tested on: Caki1; test: Proliferation dose-response IC50, Caki1; conditions: Homo sapiens, CAKI-1, read-out: IC50 (μM) Caki1
Experimental: (§1) Error bars indicate standard deviation for n=2 replicates. […] To evaluate inhibition of SCD1 by these molecules, we used LC/MS to quantify changes in SCD1-catalyzed conversion of stearoyl-CoA to oleoyl-CoA in response to drug treatments in vitro using SCD1 protein extracted from murine liver (Figure 3c, Supplementary Figure 2g). […] Synthesis routes and spectral data including NMR and MS are also provided (Supplementary Figures 3-6).
(§2) Cells were seeded at 5,000 cells/well in clear-bottom 96-well plates in triplicate. Drug treatment was applied at 1:1000 in reduced serum conditions (3%). […] Alternatively, cells were plated 2x10^5/well in 12-well plates (Genesee Scientific) in triplicate prior to drug treatment. After 120-hour treatment, cell number was established using a Coulter Particle Counter (Beckman). Oleic acid-albumin (Sigma Aldrich) was added to media at 5µM, and was applied adjuvant to drug treatment. Drug stocks were prepared in DMSO (Sigma) at 1000x. IC50 dosing per cell line was calculated using CalcuSyn analytical software.

[2] = tested on: ACHN; test: Proliferation dose-response IC50, ACHN; conditions: Homo sapiens, read-out: IC50 (μM) ACHN
Experimental: as §1, §2

[3] = tested on: A498; test: Proliferation dose-response IC50, A498; conditions: Homo sapiens, A498, read-out: IC50 (μM) A498
Experimental: as §1, §2

[4] = tested on: Caki2; test: Proliferation dose-response IC50, Caki2; conditions: Homo sapiens, CAKI-2, read-out: IC50 (μM) Caki2
Experimental: as §1, §2

`O=C(Nc1ccc(OCc2ccccc2)nc1)N1CCN(C(=O)c2ccccc2C(F)(F)F)CC1` [SSI-2] was tested, and the IC50 [1] was 3 µM, the IC50 [2] was 0.25 µM and the IC50 [3] was 2.5 µM.
Molecule `CNC(=O)c1ccccc1OCC(=O)N1CCN(C(=O)c2ccccc2C(F)(F)F)CC1` [SSI-1] has an IC50 [1] of 23.5 µM, an IC50 [2] of 4.1 µM and an IC50 [3] of 11.2 µM. The IC50 [4] was 26.5 µM.
